# Measured values taken from PubChem BioAssay AID1479 (National Center for Advancing Translational Sciences (NCATS), 2009).
# In all, about 280,000 compounds went through this assay and about 820 (0.29%) were called active. Inconclusive results, whose numbers are uncertain, are shown with a selection of clear calls. Calls follow the shape of the dose curve; as a rule, active = well fitted curve in either direction with a large enough effect; inconclusive = small, poorly fitted or top-dose-only effect; inactive = flat fitted curve, though single readings scatter. Potencies of inconclusive entries are left out as doubtful fits.
# Assay: Total Fluorescence Counterscreen for Inhibitors of the Interaction of Thyroid Hormone Receptor and Steroid Receptor Coregulator 2
# Settings: TRb/SRC2 Texas Red total fluorescence interference; series mostly up to 106 µM
# How it was run: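 Human TRβ ligand-binding domain (0.6 uM) and Texas Red SRC2 peptide (20 nM) in Tris buffer with 1 uM T3 and 5% DMSO were incubated with pinned compound for 5 hr at ambient temperature. Total fluorescence was computed as S + 2P (555/632 nm).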
# Potency is read from the fitted curve at half-maximal effect; tags tell the direction and shape of the fitted curve or compound fluorescence and quenching.
row,SMILES,Potency
1,O=C(O)C1CN(CCCP(=O)(O)O)CCN1 (centres undefined),"inconclusive [falling, full curve, poor fit]"
2,O=C(O)CSc1c2c(nc3cc(C(=O)NCCN4CCOCC4)ccc13)CCC2,active: 50.1 µM [fluorescent]
3,Cc1noc(-c2ccc(-c3noc(-c4ccc(C(F)(F)F)cc4)n3)cc2)n1,"inconclusive [quencher, full curve]"
4,O=c1cc(O)c2sc3nc(-c4ccccc4)cc(C(F)(F)F)c3c2[nH]1,"inconclusive [falling, full curve, poor fit]"
5,COC(=O)C1=C2N(Cc3ccccc3)C(C)=C(C(=O)OC)C(c3ccccc3)N2C(=O)[C@](O)(C(=O)OC)C1 (some centres undefined),"inconclusive [falling, full curve, poor fit]"
6,CCOc1ccc(CCNC(=O)Cn2c(C)c3cnn(-c4ccccc4)c(=O)c3c2C)cc1,inactive
7,NS(=O)(=O)c1ccc(Nc2nc(-c3ccc(O)cc3)cs2)cc1,"inconclusive [quencher, partial curve]"
8,COc1ccc(CNc2nc(-c3ccco3)nn2C(=O)c2ccccc2C)cc1,"inconclusive [falling, partial curve, poor fit]"
9,N#Cc1ccccc1NC(=O)C(=O)NCC(c1cccnc1)N1CCc2ccccc21 (centres undefined),inactive
10,Cc1ccc2occ(CC(=O)Nc3c(C(=O)Nc4ccc(Cl)cc4)oc4ccccc34)c2c1,"inconclusive [falling, full curve, poor fit]"
11,Cc1cccc(C)c1NC(=O)CN(C)S(=O)(=O)c1ccc2[nH]c3c(c2c1)CCCC3,active: 22.4 µM [quencher]
12,O=C(CC1(O)C(=O)c2ccccc2C1=O)c1ccccc1,inactive
13,O=C(Cn1c(=O)n(Cc2ccc(C(=O)NCc3ccc4c(c3)OCO4)cc2)c(=O)c2ccccc21)Nc1cccc(Cl)c1,"inconclusive [falling, partial curve, poor fit]"
14,CC(=O)Nc1cccc(C(=O)/C=C/c2ccco2)c1,inactive
15,Cc1ccc(C(=O)c2cn(Cc3c(F)cccc3Cl)c3nc(C)ccc3c2=O)cc1,"inconclusive [falling, full curve, poor fit]"
16,Cc1cc(F)ccc1NC(=O)C(C(C)C)N1Cc2ccccc2C1=O (centres undefined),"inconclusive [quencher, full curve]"
17,CC(=O)Nc1ccc(S(=O)(=O)NC2=NCN(C(C)C)CN2)cc1,active: 12.6 µM [quencher]
18,CC(=O)c1ccc(-n2cc(-c3ccc(C(C)(C)C)cc3)[n+]3c2SCCC3)cc1,inactive
19,O=C(Nc1ccc([N+](=O)[O-])cc1Cl)c1cc(Cl)ccc1O,inactive
20,CC(C)=CCCC1=CCC2C(=O)NNC(=O)C2C1 (centres undefined),inactive
21,CC1CN(CC(O)COC(c2ccc(Cl)cc2)c2ccc(Cl)cc2)CC(C)O1 (centres undefined),"inconclusive [falling, full curve, poor fit]"
22,CCOC(=O)c1ccc(NC(=O)CCn2c(=O)oc3ccccc32)cc1,active: 501 µM [quencher]

row,SMILES,Potency
1,Cc1ccc(NCC(=O)N=Nc2c(O)[nH]c3ccc([N+](=O)[O-])cc23)cc1,"inconclusive [quencher, partial curve]"
2,CCOc1ccccc1CN1C(=O)c2ccccc2C1C(=O)NC1CCCCCC1 (centres undefined),"inconclusive [falling, full curve, poor fit]"
3,OCC1OC([S-])[C@H](O)C(O)C1O.[Au+] (some centres undefined),active: 12.6 µM [quencher]
4,O=C(NCCC1=CCCCC1)C1CCN(C(=O)N2CCOc3ccccc32)CC1,"inconclusive [falling, partial curve, poor fit]"
5,COc1ccc(CNC(=O)CCCN2C(=O)CCn3nc(-c4cn(C)c5ccccc45)cc32)cc1,"inconclusive [falling, partial curve, poor fit]"
6,O=C(CSc1nc2ccccc2[nH]1)N1c2ccccc2Sc2ccccc21,"inconclusive [quencher, partial curve]"
7,COc1ccc(-c2cc(=O)c3c(OC)c(OC)c(OC)c(OC)c3o2)cc1,inconclusive
8,CC1CCN(c2csc3ccc(F)cc3c2=O)CC1,"inconclusive [quencher, partial curve]"
9,CCN1CCN(C(=O)c2ccc3c(c2)N(Cc2ccccc2)C(=O)c2ccccc2S3(=O)=O)CC1,active: 0.0126 µM [quencher]
10,COc1ccc(OC)c(NC(=O)N2CC(C)Oc3ccc(C)cc32)c1 (centres undefined),"inconclusive [quencher, full curve]"
11,NNc1cc([N+](=O)[O-])cc2c1C(=O)N(Cc1ccccc1)S2=O (centres undefined),inactive
12,CCOc1cc(NC(=S)NCCCOC)c(OCC)cc1NC(=O)c1cccs1,"inconclusive [falling, full curve, poor fit]"
13,Cc1c(NC(=O)/C(=C/c2cccs2)c2cccs2)c(=O)n(-c2ccccc2)n1C,"inconclusive [falling, full curve, poor fit]"
14,COC1=C/C(=C/c2c(N)n3c(nc2=O)sc2cc(S(C)(=O)=O)ccc23)C=CC1=O,inactive
15,COc1ccc(Br)cc1C1CC(=O)Nc2c1c(C)nn2-c1nc(C)cc(C)n1 (centres undefined),"inconclusive [quencher, full curve]"
16,CCc1cccc(NC(=O)CN2C(=O)CCc3cc(S(=O)(=O)N4CCOCC4)ccc32)c1,inactive
17,COc1ccccc1OCC(=O)Nc1nc2c(s1)CC(C)CC2 (centres undefined),"inconclusive [falling, partial curve, poor fit]"
18,CCCCc1nn2c(=O)cc(COC(=O)c3cccc(OC)c3)nc2s1,"inconclusive [falling, full curve, poor fit]"
19,CC1=C(C(=O)Nc2ccc(C)cc2C)C(c2ccc(O)cc2)n2nnnc2N1 (centres undefined),"inconclusive [falling, partial curve, poor fit]"
20,Cc1c(C(=O)Nc2ccc(-c3nc4cc(Cl)ccc4o3)cc2)oc2ccccc12,active: 112 µM [quencher]
21,Cc1ccccc1NC(=O)CSc1cn(CC(=O)N2CCCC2)c2ccccc12,"inconclusive [falling, partial curve, poor fit]"
22,O=C(CC1Nc2ccccc2NC1=O)Nc1cc(Cl)cc(Cl)c1 (centres undefined),inactive

row,SMILES,Potency
1,COc1ccc(C(CC(=O)O)NC(=O)c2sc3ccccc3c2Cl)cc1 (centres undefined),"inconclusive [falling, full curve, poor fit]"
2,CCOc1cc(C(=O)Nc2ccc(-c3nc4cc(Cl)ccc4o3)cc2)cc(OCC)c1OCC,inconclusive
3,O=C(COc1ccccc1)Nc1ccc2nc(SCC(=O)N3CCc4ccccc43)sc2c1,"inconclusive [falling, full curve, poor fit]"
4,Cc1cc(NC(=O)N2CCC(CN3CCOCC3)CC2)ccc1Br,active: 79.4 µM [quencher]
5,Cc1[nH]n(C(N)=S)c(=O)c1N=Nc1ccc(S(=O)(=O)N2CCCCCC2)cc1,inactive
6,CN(C(=O)COC(=O)c1cc(-c2ccco2)nc2ccccc12)C1CCS(=O)(=O)C1 (centres undefined),"inconclusive [quencher, partial curve]"
7,COc1cc(Nc2ncnc3onc(-c4ccc(Cl)cc4)c23)cc(OC)c1,"inconclusive [quencher, full curve]"
8,COc1ccc(-c2nc(CN3CCC(C(=O)NCCN(CC(C)C)CC(C)C)CC3)c(C)o2)cc1OC,"inconclusive [falling, full curve, poor fit]"
9,COC(=O)c1ccc(CSc2nc3ccc(S(=O)(=O)N4CCOCC4)cc3[nH]2)cc1,"inconclusive [falling, partial curve, poor fit]"
10,Cc1ccc(S(=O)(=O)c2cn(C)c3cc(N4CCCC4)c(F)cc3c2=O)c(C)c1,"inconclusive [quencher, full curve]"
11,NC(=O)CC(NC(=O)c1ccccc1)c1ccc(NCCOc2ccccc2)c([N+](=O)[O-])c1 (centres undefined),inactive
12,O=C(OCCN1CCOCC1)C(c1ccccc1)c1ccccc1,inactive
13,COc1cccc2cc(-c3nc(Cl)c4c5c(sc4n3)CC(C)CC5)c(=O)oc12 (centres undefined),"inconclusive [falling, full curve, poor fit]"
14,Cc1nc(-c2ccccc2)sc1-c1n[nH]c(=S)n1C,inactive
15,CCOC(=O)c1c(-c2ccc(C)cc2)csc1NC(=O)c1ccc(C(C)(C)C)cc1,"inconclusive [falling, full curve, poor fit]"
16,Cc1cc(C)c2cc3c(N)c(C(=O)Nc4c(C)[nH]c(=O)[nH]c4=O)sc3nc2c1,"inconclusive [falling, partial curve, poor fit]"
17,COc1ccc(CNC(=O)CN2CCSc3ccccc32)c(OC)c1,"inconclusive [falling, partial curve, poor fit]"
18,COc1ccc2c(C)cc(SCC(=O)Nc3nsc(-c4ccc(C(C)(C)C)cc4)n3)nc2c1,"inconclusive [falling, partial curve, poor fit]"
19,COc1ccc(NS(=O)(=O)c2ccc(O)c(NC(=O)c3cc4c(C)nn(-c5ccc(F)cc5)c4s3)c2)cc1,"inconclusive [quencher, partial curve]"
20,CCOc1ccc(S(=O)(=O)n2nc(C)c(S(=O)(=O)N3CCCCCC3)c2C)cc1,"inconclusive [falling, partial curve, poor fit]"
